Read counts are not given, so values of variants with three or more changes are uncertain.
B1: CPEB3 Ribozyme (parent)
chain: UAACAGGGGGCCACAGCAGAAGCGUUCACGUCGCAGCCCCUGUCAGAUUCUGGUGAAUCUGCGAAUUCUGCUGUAUAUCUC

Variants of: B1
Experiment: self-cleavage, relative activity (ratio to wild type); higher = more cleavage; in vitro, sequencing
How it was run: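 CPEB3 self-cleaving ribozyme mutant libraries were made by rounds of error-prone PCR, barcoded, and transcribed in vitro with T7 RNA polymerase for 5 hours at 37°C. Cleavage occurred during transcription and a 15 min DNase I step before EDTA stop. RNAs were reverse transcribed with template switching and Illumina-sequenced, with DNA sequencing mapping barcodes to variants. Relative activity is the variant's cleaved/total read fraction divided by wild type's (minimum 5 reads), averaged across three batches.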

| Variant | self-cleavage |
| --- | --- |
| C12U U41A A47G C68G G73U C79A | 0.06 |
| C12U U41A A64G U67C | 0.1 |
| C12U U41A A64U | 0.16 |
| C12U U41A U54C A64G C79U | 0.25 |
| C12U U41A U60C | 0.25 |
| C12U U41A U66C A77U | 0.05 |
| C12U U41C A45C U60C U66G | 0 |
| C12U U41C A77U | 1.27 |
| C12U U41C U43A A47G U51A | 0.93 |
| C12U U41C U51A | 1.41 |
| C12U U41C U51C | 0.88 |
| C12U U41C U60A G70A | 0.52 |
| C12U U41C U60C | 1.13 |
| C12U U41C U74A | 1.37 |
| C12U U41C U78C | 1.18 |
| C12U U43C A45G A57G G70U | 0.18 |
| C12U U43C A45G U49C | 0.18 |
| C12U U43C A45U A47G U76C | 0.14 |
| C12U U43C G70U | 0.16 |
| C12U U43C U49C | 0.31 |
| C12U U43C U54A A77U | 1.06 |
| C12U U43C U76C | 0.89 |
| C12U U43G U72G A75G A77G | 0.09 |
| C12U U48A U49A U74C | 1.21 |

| Variant | self-cleavage |
| --- | --- |
| C12U U48C C50U | 0.7 |
| C12U U49A A64U | 0.23 |
| C12U U49C A64C | 0.1 |
| C12U U49C U60C | 0.11 |
| C12U U51A U74C | 1.3 |
| C12U U51C A56U | 0.81 |
| C12U U54C U58C A64G U72C U78C | 0.63 |
| C12U U58C U80A | 0.93 |
| C12U U60A A77U | 0.9 |
| C12U U60C U72C | 0.6 |
| C12U U66A U74A | 1.24 |
| C12U U66C U72A U78A | 0.98 |
| C12U U67A U72G | 0.74 |
| C12U U67A U78C U80C | 0.33 |
| C12U U67C U72C | 0.31 |
| C12U U69A U76C | 1.2 |
| C12U U69C A77U | 0.96 |
| A13C A15G A35G | 0.63 |
| A13C A15G A65G | 0.67 |
| A13C A15G C32A U54C | 0.19 |
| A13C A15G C68A | 0.24 |
| A13C A15G U25C U54C | 0.2 |
| A13C A15G U41C U43C U60A G63U | 0.1 |
| A13C A15U G30A C37A U43C A56U A64U | 0.07 |

| Variant | self-cleavage |
| --- | --- |
| A13C A15U U25C A35U U51C | 0.23 |
| A13C A15U U26A A45U | 0.28 |
| A13C A18G A21C U43C | 0.24 |
| A13C A18G A21G U43C | 0.16 |
| A13C A18G A47G | 0.41 |
| A13C A18G A64G U69C U72C | 0.84 |
| A13C A18G C39U G52C A65U | 0.08 |
| A13C A18G U49A U78C | 0.31 |
| A13C A18G U54G U67C U80G | 0.15 |
| A13C A18U C23G C32G U41C | 0.06 |
| A13C A18U C40A U43C A65G | 0.06 |
| A13C A18U G36A U41A G53A U60A U78A | 0.07 |
| A13C A18U U72A | 0.15 |
| A13C A20G A35G U41C U72C | 1.17 |
| A13C A20G C23G U67A | 0.05 |
| A13C A20G C39A U41G U67C U74A | 0.05 |
| A13C A20G U31C U51C U60A | 0.03 |
| A13C A20G U43C A65G | 0.18 |
| A13C A20G U54C U66C U69C | 0.18 |
| A13C A20G U60A G70C U76A | 0.15 |
| A13C A20G U74A | 0.87 |
| A13C A20U A28C A45G U67C U80C | 0.08 |
| A13C A20U U31A C39G U74A | 0.23 |
| A13C A20U U69A A75G | 0.11 |

| Variant | self-cleavage |
| --- | --- |
| A13C A21C U41C A45G A64G | 0.23 |
| A13C A21G G33A U58C | 0.08 |
| A13C A21U U48C U60C | 0.14 |
| A13C A28G A45G A64G | 0.25 |
| A13C A28G C29G C44A U48C A56C A57G | 0.14 |
| A13C A28G U60C C68A | 0.17 |
| A13C A28U A57G U60C A65G U72G A75G | 0.08 |
| A13C A28U C50U | 0.45 |
| A13C A28U G52U | 0.87 |
| A13C A28U U43C A75G | 0.24 |
| A13C A35C U67G U78C | 0.13 |
| A13C A35G A56G U69C | 1 |
| A13C A35G U41C A65G U72C | 1.06 |
| A13C A35G U60C | 0.87 |
| A13C A35G U80C | 1.16 |
| A13C A35U U41C G42A A47G | 0.16 |
| A13C A35U U54A U60A | 0.2 |
| A13C A45G U48C A64C A65U A77G | 0.14 |
| A13C A47G G52A | 0.96 |
| A13C A56G U74A | 1.07 |
| A13C A56G U78C | 0.71 |
| A13C A57G C62G U69C U78C U80C | 0.23 |
| A13C A57U C59U A64G U72C A77U U78C | 0.16 |
| A13C A64G U72C A77U | 0.82 |

| Variant | self-cleavage |
| --- | --- |
| A13C C14A A15U A28U U72C | 0.25 |
| A13C C14A U25C A28G A35U U67C | 0.04 |
| A13C C14G G61A U72A | 0.12 |
| A13C C14U U25C U31C A47U U60A | 0.15 |
| A13C C17U U25C U26C A28G U80C | 0.1 |
| A13C C17U U43C U54A U60A | 0.15 |
| A13C C17U U54A | 0.44 |
| A13C C17U U60A C62U | 0.08 |
| A13C C23U A35C | 0.17 |
| A13C C23U U78C | 0.25 |
| A13C C27A A35G A45G U60C | 0.22 |
| A13C C29A C32U C71U | 0.13 |
| A13C C29U U41A A45U A75G | 0.14 |
| A13C C32U C38U A45G U80A | 0.03 |
| A13C C32U U58C | 0.23 |
| A13C C34A A35G U43C A77G | 0.21 |
| A13C C34U U41C U48G | 0.09 |
| A13C C34U U43C A64U | 0.08 |
| A13C C37U U80C | 0.79 |
| A13C C39U A64U | 0.07 |
| A13C C39U U51A | 0.8 |
| A13C C40A A56G | 0.34 |
| A13C C40U A57G | 0.25 |
| A13C C44U U80C | 0.47 |

| Variant | self-cleavage |
| --- | --- |
| A13C G19C U41A G63A A64G U72A U78A | 0.11 |
| A13C G22A U25C A56U C71G | 0.18 |
| A13C G24A A47G U54C A65C | 0.06 |
| A13C G24A A47G U76A U78C | 0.09 |
| A13C G24A U26C G55U U76C | 0.15 |
| A13C G24A U72C | 0.21 |
| A13C G33A C38U U51C A56C A64G | 0.07 |
| A13C G33A U41C | 0.24 |
| A13C G53A U58C A65U | 0.15 |
| A13C U25A A64U U76C | 0.07 |
| A13C U25A U26C A35G U69G | 0.14 |
| A13C U25A U60C | 0.18 |
| A13C U25C A45U | 0.18 |
| A13C U25C U26C | 0.26 |
| A13C U25C U31A U78C | 0.09 |
| A13C U25C U31G G63U | 0.33 |
| A13C U25C U48C G52C | 0.12 |
| A13C U25C U67C | 0.18 |
| A13C U25C U67G | 0.2 |
| A13C U25C U76G | 0.63 |
| A13C U26A A64G U72A | 0.13 |
| A13C U26C A45G | 0.19 |
| A13C U26C A45G U78C | 0.22 |
| A13C U26C A57G | 0.35 |

| Variant | self-cleavage |
| --- | --- |
| A13C U26C G42A | 0.32 |
| A13C U26C U51C U67C U80C | 0.15 |
| A13C U31A A45G | 0.25 |
| A13C U31C A35C | 0.52 |
| A13C U31C C32U U41A U49C | 0.04 |
| A13C U31C U43C | 0.46 |
| A13C U31C U48C U67A U76C U80G | 0.21 |
| A13C U31C U58G U72C | 0.23 |
| A13C U31C U67C | 0.43 |
| A13C U41A A75G | 0.11 |
| A13C U41C G46A A57G | 0.49 |
| A13C U41C U51A U67G G70A U72A | 0.17 |
| A13C U41C U60C U76C U80C | 0.92 |
| A13C U41C U69A G73A | 1.02 |
| A13C U41G U51C U54C U72C A75G | 0.15 |
| A13C U43A U54C C81U | 1.24 |
| A13C U43C C50A U58C U78C | 0.21 |
| A13C U43C G63A A75U | 0.54 |
| A13C U43C U51C U54C | 0.45 |
| A13C U43C U54A | 0.87 |
| A13C U49A A64G | 0.14 |
| A13C U49C A65G | 0.22 |
| A13C U49C U67C | 0.26 |
